The structures appear in SMILES notation. Structures can show the parent of a compound that is named as a salt. Over roughly 1,900 compounds, “cell viability of compound + 1 nM pemigatinib relative to pemigatinib-only (DMSO) wells” has its median near 0.95; the lowest 2% begin near 0.22. Some of the results follow.

This experiment relates to PDC-DUC18828. The experiment is described as follows: cell viability of compound + 1 nM pemigatinib relative to pemigatinib-only (DMSO) wells (fraction); PDC-DUC18828 is a patient-derived cholangiocarcinoma cell line; higher = less growth inhibition. As to conditions: first compound 1 µM; pemigatinib concentration 1 nM; 72 h. How it is done: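 Selleck Bioactive library screen in the patient-derived FGFR2 fusion-positive ICC cell line PDC-DUC18828 (500 cells/well). Each compound was tested at 1 uM with 1 nM pemigatinib, in triplicate, for 72 h. Viability was read by CellTiter-Glo and normalised to plate DMSO controls. Value is the paper's averaged normalised viability.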
For `CN1CCC(Nc2nc(Nc3ccc(Oc4ccccc4)cc3)c3c(=O)[nH]cc(Br)c3n2)CC1` + CCN1C(=O)N(c2c(F)c(OC)cc(OC)c2F)Cc2cnc3[nH]c(CN4CCOCC4)cc3c21 [pemigatinib], the cell viability was 0.783.

On to `NC(=O)c1cccc(-c2cccc(OC(=O)NC3CCCCC3)c2)c1` + CCN1C(=O)N(c2c(F)c(OC)cc(OC)c2F)Cc2cnc3[nH]c(CN4CCOCC4)cc3c21 [pemigatinib], for which the cell viability amounted to 0.993.

Take `CC(=O)O[C@H]1C(=O)[C@@]2(C)[C@H]([C@H](OC(=O)c3ccccc3)[C@]3(O)C[C@H](OC(=O)[C@H](O)[C@@H](NC(=O)c4ccccc4)c4ccccc4)C(C)=C1C3(C)C)[C@]1(OC(C)=O)CO[C@@H]1C[C@@H]2O` [Paclitaxel] + CCN1C(=O)N(c2c(F)c(OC)cc(OC)c2F)Cc2cnc3[nH]c(CN4CCOCC4)cc3c21 [pemigatinib]: the cell viability amounted to 0.221.

Consider `CCCN(CCC)CCc1cccc2c1CC(=O)N2` [Ropinirole HCl] + CCN1C(=O)N(c2c(F)c(OC)cc(OC)c2F)Cc2cnc3[nH]c(CN4CCOCC4)cc3c21 [pemigatinib], for which the cell viability was 0.853.

Take `CCCCCCCCCCCCCCCCn1cc[n+](Cc2ccccc2)c1C` + CCN1C(=O)N(c2c(F)c(OC)cc(OC)c2F)Cc2cnc3[nH]c(CN4CCOCC4)cc3c21 [pemigatinib]: the cell viability came out at 0.439.

Regarding `CSc1nc2cc(Cl)c(Oc3cccc(Cl)c3Cl)cc2[nH]1` [Triclabendazole] + CCN1C(=O)N(c2c(F)c(OC)cc(OC)c2F)Cc2cnc3[nH]c(CN4CCOCC4)cc3c21 [pemigatinib], the cell viability was 0.945.

In the case of `Nc1ccc(-c2ccc3ncc4ccc(=O)n(-c5cccc(C(F)(F)F)c5)c4c3c2)cn1` [Torin 2] + CCN1C(=O)N(c2c(F)c(OC)cc(OC)c2F)Cc2cnc3[nH]c(CN4CCOCC4)cc3c21 [pemigatinib], the cell viability amounted to 0.203.

With `Cc1cnc(-c2ccccc2C(C)C)nc1NCc1ccc(-n2ccnn2)cc1` + CCN1C(=O)N(c2c(F)c(OC)cc(OC)c2F)Cc2cnc3[nH]c(CN4CCOCC4)cc3c21 [pemigatinib], the cell viability was 0.914.

Regarding `CC(C)C[C@H](NC(=O)[C@H](Cc1ccccc1)C[C@@H](O)[C@H](Cc1ccccc1)NC(=O)OC(C)(C)C)C(=O)N[C@@H](Cc1ccccc1)C(N)=O` + CCN1C(=O)N(c2c(F)c(OC)cc(OC)c2F)Cc2cnc3[nH]c(CN4CCOCC4)cc3c21 [pemigatinib], the cell viability was 0.915.

As to `Nc1nc(N)c(N=O)c(OCC2CCCCC2)n1` + CCN1C(=O)N(c2c(F)c(OC)cc(OC)c2F)Cc2cnc3[nH]c(CN4CCOCC4)cc3c21 [pemigatinib], the cell viability turned out to be 0.969.

As to `COc1cc2nc(N3CCCC3)nc(NCCCCCN3CCCC3)c2cc1OC` + CCN1C(=O)N(c2c(F)c(OC)cc(OC)c2F)Cc2cnc3[nH]c(CN4CCOCC4)cc3c21 [pemigatinib], the cell viability is 0.995.

As to `NC(=O)c1cnccn1` [Pyrazinamide] + CCN1C(=O)N(c2c(F)c(OC)cc(OC)c2F)Cc2cnc3[nH]c(CN4CCOCC4)cc3c21 [pemigatinib], the cell viability was determined as 0.982.

`Cn1cnc2c(F)c(Nc3ccc(Br)cc3F)c(C(=O)NOCCO)cc21` + CCN1C(=O)N(c2c(F)c(OC)cc(OC)c2F)Cc2cnc3[nH]c(CN4CCOCC4)cc3c21 [pemigatinib]: the cell viability worked out at 0.8.

Consider `C#Cc1cccc(Nc2ncnc3cc(OCCOC)c(OCCO)cc23)c1` + CCN1C(=O)N(c2c(F)c(OC)cc(OC)c2F)Cc2cnc3[nH]c(CN4CCOCC4)cc3c21 [pemigatinib], for which the cell viability was 0.902.

As for `CC(C)OC(=O)C(C)(C)Oc1ccc(C(=O)c2ccc(Cl)cc2)cc1` [Fenofibrate] + CCN1C(=O)N(c2c(F)c(OC)cc(OC)c2F)Cc2cnc3[nH]c(CN4CCOCC4)cc3c21 [pemigatinib], the cell viability was 0.991.

Regarding `OCCOc1ccc(/C(=C(/CCCl)c2ccccc2)c2ccccc2)cc1` [Ospemifene] + CCN1C(=O)N(c2c(F)c(OC)cc(OC)c2F)Cc2cnc3[nH]c(CN4CCOCC4)cc3c21 [pemigatinib], the cell viability came out at 0.972.

Turning to `Cc1ccc(NC(=O)C2(c3ccc4c(c3)OC(F)(F)O4)CC2)nc1-c1cccc(C(=O)O)c1` [VX-809 (Lumacaftor)] + CCN1C(=O)N(c2c(F)c(OC)cc(OC)c2F)Cc2cnc3[nH]c(CN4CCOCC4)cc3c21 [pemigatinib], the cell viability is 1.07.

In the case of `CNC(=O)c1ccc(Nc2ncc(C(F)(F)F)c(NCc3nccnc3N(C)S(C)(=O)=O)n2)cc1` + CCN1C(=O)N(c2c(F)c(OC)cc(OC)c2F)Cc2cnc3[nH]c(CN4CCOCC4)cc3c21 [pemigatinib], the cell viability is 0.894.

With `Cn1cc(/C=C2\C(=O)Nc3cccnc32)c2ccccc21` + CCN1C(=O)N(c2c(F)c(OC)cc(OC)c2F)Cc2cnc3[nH]c(CN4CCOCC4)cc3c21 [pemigatinib], the cell viability was 0.941.

With `CN1C(=O)C(Cc2c[nH]c3ccccc23)NC1=S` (stereo not drawn) [Necrostatin-1] + CCN1C(=O)N(c2c(F)c(OC)cc(OC)c2F)Cc2cnc3[nH]c(CN4CCOCC4)cc3c21 [pemigatinib], the cell viability was 1.02.

For `CCC[C@H](N[C@H]1CCc2cc(F)cc(F)c2C1)C(=O)Nc1cn(C(C)(C)CNCC(C)(C)C)cn1` + CCN1C(=O)N(c2c(F)c(OC)cc(OC)c2F)Cc2cnc3[nH]c(CN4CCOCC4)cc3c21 [pemigatinib], the cell viability turned out to be 0.931.

Take `Cc1cc2c(s1)Nc1ccccc1N=C2N1CCN(C)CC1` [Olanzapine] + CCN1C(=O)N(c2c(F)c(OC)cc(OC)c2F)Cc2cnc3[nH]c(CN4CCOCC4)cc3c21 [pemigatinib]: the cell viability worked out at 0.957.

As for `CCn1c(-c2nonc2N)nc2c(C#CC(C)(C)O)ncc(OC[C@H]3CCCNC3)c21` + CCN1C(=O)N(c2c(F)c(OC)cc(OC)c2F)Cc2cnc3[nH]c(CN4CCOCC4)cc3c21 [pemigatinib], the cell viability is 0.872.

For `O=S(=O)(O)Oc1ccc(C(c2ccc(OS(=O)(=O)O)cc2)c2ccccn2)cc1` [Sodium Picosulfate] + CCN1C(=O)N(c2c(F)c(OC)cc(OC)c2F)Cc2cnc3[nH]c(CN4CCOCC4)cc3c21 [pemigatinib], the cell viability was found to be 0.923.

For `CCCNC(=O)Nc1ccc(Oc2ncnc3cc(OC)c(OC)cc23)cc1Cl` + CCN1C(=O)N(c2c(F)c(OC)cc(OC)c2F)Cc2cnc3[nH]c(CN4CCOCC4)cc3c21 [pemigatinib], the cell viability was 1.01.

`NC(=O)c1ccc(-c2nc(-c3ccccn3)c(-c3ccc4c(c3)OCO4)[nH]2)cc1` + CCN1C(=O)N(c2c(F)c(OC)cc(OC)c2F)Cc2cnc3[nH]c(CN4CCOCC4)cc3c21 [pemigatinib]: the cell viability came out at 0.974.

Regarding `Cc1cn(-c2cc(NC(=O)c3ccc(C)c(Nc4nccc(-c5cccnc5)n4)c3)cc(C(F)(F)F)c2)cn1` [Nilotinib (AMN-107)] + CCN1C(=O)N(c2c(F)c(OC)cc(OC)c2F)Cc2cnc3[nH]c(CN4CCOCC4)cc3c21 [pemigatinib], the cell viability turned out to be 1.06.

Regarding `C[C@@H](O[C@H]1OCCN(Cc2n[nH]c(=O)[nH]2)[C@H]1c1ccc(F)cc1)c1cc(C(F)(F)F)cc(C(F)(F)F)c1` [Aprepitant] + CCN1C(=O)N(c2c(F)c(OC)cc(OC)c2F)Cc2cnc3[nH]c(CN4CCOCC4)cc3c21 [pemigatinib], the cell viability was determined as 0.954.

Take `CNC(=O)c1cc(Oc2ccc3nc(N[C@@H]4CCCC[C@H]4O)sc3c2)ccn1` + CCN1C(=O)N(c2c(F)c(OC)cc(OC)c2F)Cc2cnc3[nH]c(CN4CCOCC4)cc3c21 [pemigatinib]: the cell viability was 0.95.

With `CC(C)(C)c1ccc(S(=O)(=O)/C=C/C#N)cc1` + CCN1C(=O)N(c2c(F)c(OC)cc(OC)c2F)Cc2cnc3[nH]c(CN4CCOCC4)cc3c21 [pemigatinib], the cell viability worked out at 0.625.

Take `CCN1C[C@H](C)n2c(c(O)c3c(=O)n(Cc4ccc(F)c(Cl)c4)nc(C(=O)NC)c32)C1=O` + CCN1C(=O)N(c2c(F)c(OC)cc(OC)c2F)Cc2cnc3[nH]c(CN4CCOCC4)cc3c21 [pemigatinib]: the cell viability came to 0.987.

Regarding `CC(=O)c1c(C)c2cnc(Nc3ccc(N4CCNCC4)cn3)nc2n(C2CCCC2)c1=O` + CCN1C(=O)N(c2c(F)c(OC)cc(OC)c2F)Cc2cnc3[nH]c(CN4CCOCC4)cc3c21 [pemigatinib], the cell viability amounted to 0.793.

Take `O=C(O)c1cc(/N=N/c2ccc(S(=O)(=O)Nc3ccccn3)cc2)ccc1O` [Sulfasalazine] + CCN1C(=O)N(c2c(F)c(OC)cc(OC)c2F)Cc2cnc3[nH]c(CN4CCOCC4)cc3c21 [pemigatinib]: the cell viability was found to be 1.06.

`NC(=O)c1ccc(I)c([N+](=O)[O-])c1` [Iniparib (BSI-201)] + CCN1C(=O)N(c2c(F)c(OC)cc(OC)c2F)Cc2cnc3[nH]c(CN4CCOCC4)cc3c21 [pemigatinib]: the cell viability was determined as 1.

Regarding `COc1ccc(C2=N[C@@H](c3ccc(Cl)cc3)[C@@H](c3ccc(Cl)cc3)N2C(=O)N2CCNC(=O)C2)c(OC(C)C)c1` [Nutlin-3a] + CCN1C(=O)N(c2c(F)c(OC)cc(OC)c2F)Cc2cnc3[nH]c(CN4CCOCC4)cc3c21 [pemigatinib], the cell viability turned out to be 0.952.

As for `COc1ccc(C2=N[C@@H](c3ccc(Cl)cc3)[C@@H](c3ccc(Cl)cc3)N2C(=O)N2CCNC(=O)C2)c(OC(C)C)c1` [Nutlin-3] + CCN1C(=O)N(c2c(F)c(OC)cc(OC)c2F)Cc2cnc3[nH]c(CN4CCOCC4)cc3c21 [pemigatinib], the cell viability is 1.02.

In the case of `CN/C(=N\CCSCc1nc[nH]c1C)NC#N` [Cimetidine] + CCN1C(=O)N(c2c(F)c(OC)cc(OC)c2F)Cc2cnc3[nH]c(CN4CCOCC4)cc3c21 [pemigatinib], the cell viability amounted to 0.945.

As to `C/C(=C\C(=O)OCCCCCCCCC(=O)O)C[C@@H]1OC[C@H](C[C@@H]2O[C@H]2[C@@H](C)[C@H](C)O)[C@@H](O)[C@H]1O` [Mupirocin] + CCN1C(=O)N(c2c(F)c(OC)cc(OC)c2F)Cc2cnc3[nH]c(CN4CCOCC4)cc3c21 [pemigatinib], the cell viability is 0.95.

For the origin of these results see the supplement of paper PMC9588766.
